We go through 58 compounds from the supplement of paper PMC9446081.

The structures appear in SMILES notation. The whole screen tested about 39,000 compounds, of which about 220 (0.56%) showed activity. Some of the results follow.
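Also: static incubation at 37 °C against the wild-type strain, values averaged over two biological replicates.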

The experiment deals with Escherichia coli K-12 BW25113. The experiment is described as follows: relative growth (OD600 normalised to plate interquartile mean) (fraction); higher = less growth inhibition, active = 0.2 or less. The settings on record: 50 µM; LB; incubation time: overnight (16-24 h).
On to `COCc1cn(CC[C@H]2CC[C@@H](NC(=O)CCN3CCCCC3)[C@H](CO)O2)nn1`, for which the relative growth is inactive: 0.988.

With `C[C@H]1CN([C@@H](C)CO)C(=O)c2cc(NS(=O)(=O)c3ccccc3)ccc2O[C@H]1CN(C)S(=O)(=O)c1cccs1`, the relative growth was inactive: 1.02.

With `C[C@H]1CN([C@@H](C)CO)C(=O)c2cc(NC(=O)Nc3cccc4ccccc34)ccc2O[C@@H]1CN(C)C(=O)Nc1ccc2c(c1)OCO2`, the relative growth was inactive: 1.01.

On to `C=CCC[C@H](Cc1ccc(F)cc1)C(=O)OC[C@@H](Cc1c[nH]c2ccccc12)NC(=O)[C@@H](CC=C)CC(=O)N(CCO)Cc1ccccc1`, for which the relative growth is inactive: 1.06.

With `Cc1csc2sc(C(=O)Oc3ccc(Cl)cc3)c(C)c12`, the relative growth is inactive: 1.04.

Take `C[C@H]1CN([C@@H](C)CO)C(=O)Cc2cc(NS(C)(=O)=O)ccc2O[C@@H]1CN(C)Cc1ccc(C(=O)Nc2ccccc2N)cc1`: the relative growth is inactive: 1.01.

On to `C[C@@H]1CCCCO[C@@H](CN(C)C(=O)Nc2ccc3c(c2)OCO3)[C@@H](C)CN([C@H](C)CO)C(=O)c2cc(NC(=O)c3ccccc3)ccc2O1`, for which the relative growth is inactive: 1.01.

On to `COc1ccc(S(=O)(=O)N(C)C[C@H]2Oc3ccc(N(C)C)cc3CC(=O)N([C@H](C)CO)C[C@@H]2C)cc1`, for which the relative growth is inactive: 1.01.

`C[C@H]1CN([C@@H](C)CO)C(=O)Cc2cc(NS(=O)(=O)c3ccccc3)ccc2O[C@@H]1CN(C)CC1CC1`: the relative growth is inactive: 1.

For `C[C@H]1CCCCO[C@@H](CN(C)Cc2ccc3c(c2)OCO3)[C@@H](C)CN([C@@H](C)CO)C(=O)c2cc(NC(=O)Cc3ccccc3)ccc2O1`, the relative growth was inactive: 1.01.

For the compound `N#Cc1ccc(-c2cccs2)nc1`, the relative growth was inactive: 1.

In the case of `COCC(=O)N1C[C@H](C)[C@@H](OC)CN(C)C(=O)c2ccc(NC(=O)Nc3ccccc3)cc2OC[C@H]1C`, the relative growth is inactive: 1.

For `CCS(=O)(=O)NCC[C@H]1CC[C@@H](NC(=O)Cc2ccccn2)[C@H](CO)O1`, the relative growth was inactive: 1.02.

In the case of `C[C@H]1CCCCO[C@H](CN(C)CC2CC2)[C@@H](C)CN([C@@H](C)CO)C(=O)c2cc(NC(=O)C3CCCCC3)ccc2O1`, the relative growth is inactive: 1.

For `C[C@@H]1CN([C@H](C)CO)C(=O)c2cc(NC(=O)Nc3cccc4ccccc34)ccc2O[C@@H](C)CCCCO[C@H]1CN(C)C(=O)C1CCCCC1`, the relative growth was inactive: 1.05.

For `C[C@H]1CCCCO[C@@H](CN(C)Cc2ccc(C(=O)O)cc2)[C@@H](C)CN([C@@H](C)CO)C(=O)c2cc(NC(=O)Nc3ccccc3)ccc2O1`, the relative growth was inactive: 1.01.

As to `C[C@@H]1CN([C@@H](C)CO)C(=O)c2cc(NC(=O)CCCN(C)C)ccc2O[C@H]1CN(C)S(=O)(=O)c1ccc(Cl)cc1`, the relative growth is inactive: 0.983.

As to `C[C@H](CO)N1C[C@H](C)[C@@H](CN(C)Cc2ccncc2)OCCCC[C@H](C)Oc2ccc(NC(=O)C3CCCCC3)cc2C1=O`, the relative growth is inactive: 1.

For the compound `COc1ccc(CN(C)C[C@@H]2OCCCC[C@@H](C)Oc3ccc(NC(=O)Nc4ccc(F)cc4)cc3C(=O)N([C@@H](C)CO)C[C@H]2C)cc1`, the relative growth was inactive: 0.998.

Regarding `C[C@@H]1CN([C@H](C)CO)C(=O)Cc2cc(NS(=O)(=O)c3ccc(Cl)cc3)ccc2O[C@@H]1CN(C)S(C)(=O)=O`, the relative growth is inactive: 0.983.

On to `C[C@H]1CCCCO[C@@H](CN(C)C(=O)c2ccccc2)[C@@H](C)CN([C@@H](C)CO)C(=O)c2cc(NC(=O)Cc3ccccc3)ccc2O1`, for which the relative growth is inactive: 0.999.

On to `C[C@@H]1CN([C@@H](C)CO)C(=O)c2cc(NC(=O)CCCCCC(=O)Nc3ccccc3N)ccc2O[C@@H](C)CCCCO[C@@H]1CN(C)S(=O)(=O)c1ccc(Cl)cc1`, for which the relative growth is inactive: 1.02.

Regarding `C=CC[C@@H](CC(=O)NCCO)C(=O)NC[C@@H](OC(=O)[C@@H](CC=C)CC(=O)OC(C)(C)C)c1ccccc1`, the relative growth is inactive: 0.993.

For `C[C@@H]1CN([C@@H](C)CO)C(=O)c2cc(NC(=O)C3CC3)ccc2O[C@@H]1CN(C)S(=O)(=O)c1ccc(Cl)cc1`, the relative growth was inactive: 0.984.

With `C[C@H]1CN([C@@H](C)CO)C(=O)Cc2cc(NC(=O)CCCCCC(=O)Nc3ccccc3N)ccc2O[C@H]1CN(C)C(=O)Nc1cccc2ccccc12`, the relative growth is inactive: 0.961.

In the case of `COc1ccc(NC(=O)N(C)C[C@H]2OCCCC[C@H](C)Oc3ccc(NC(=O)CCC(F)(F)F)cc3C(=O)N([C@H](C)CO)C[C@@H]2C)cc1`, the relative growth was inactive: 1.01.

Consider `C[C@@H]1CN([C@H](C)CO)C(=O)c2cccc(NC(=O)c3cnccn3)c2O[C@@H]1CN(C)S(=O)(=O)c1ccc(F)cc1`, for which the relative growth is inactive: 1.02.

As for `C[C@@H]1CCCCO[C@@H](CN(C)Cc2ccc3c(c2)OCO3)[C@@H](C)CN([C@@H](C)CO)C(=O)c2cc(NC(=O)Nc3ccc4c(c3)OCO4)ccc2O1`, the relative growth is inactive: 0.984.

Consider `C[C@H]1CN([C@@H](C)CO)C(=O)CCCn2nncc2CO[C@H]1CN(C)Cc1ccc2c(c1)OCCN2C`, for which the relative growth was inactive: 1.02.

For `COc1ccc(NC(=O)N(C)C[C@H]2Oc3ccc(NS(C)(=O)=O)cc3C(=O)N([C@H](C)CO)C[C@H]2C)cc1`, the relative growth was inactive: 1.03.

Take `CSc1[nH]c(=O)[nH]c(=O)c1C#N`: the relative growth is inactive: 1.04.

Regarding `C[C@H]1CN([C@@H](C)CO)C(=O)Cc2cc(NC(=O)CCC(F)(F)F)ccc2O[C@@H]1CN(C)S(=O)(=O)c1ccccc1`, the relative growth was inactive: 0.992.

For the compound `C[C@H](CO)N1C[C@H](C)[C@H](CN(C)Cc2ccc(-c3ccccc3)cc2)Oc2ccc(NC(=O)NC3CCCCC3)cc2CC1=O`, the relative growth is inactive: 1.02.

As for `COc1ccc(NC(=O)Nc2ccc3c(c2)C(=O)N([C@@H](C)CO)C[C@@H](C)[C@H](CN(C)C(=O)Nc2ccc(C(F)(F)F)cc2)OCCCC[C@@H](C)O3)cc1`, the relative growth was inactive: 1.01.

Take `Cc1ccc(S(=O)(=O)N(C)C[C@H]2OCCCC[C@@H](C)Oc3ccc(NS(=O)(=O)c4ccc(F)cc4)cc3C(=O)N([C@H](C)CO)C[C@H]2C)cc1`: the relative growth is inactive: 1.02.

Take `CO[C@@H](CCO)[C@@H](O)c1ccc(O)c(F)c1`: the relative growth is inactive: 1.

`O=C1c2ccccc2C(=O)C1c1ccc(Cl)cc1`: the relative growth was inactive: 1.07.

Regarding `C[C@H](CO)N1C[C@H](C)[C@@H](CN(C)Cc2ccc(C(F)(F)F)cc2)Oc2ccc(NC(=O)Cn3cnnn3)cc2C1=O`, the relative growth is inactive: 1.03.

For the compound `O=C(N[C@@H]1C=C[C@@H](CC(=O)N2CCOCC2)O[C@@H]1CO)c1ccccn1`, the relative growth was inactive: 0.986.

As for `C[C@@H]1CN([C@H](C)CO)C(=O)c2cc(NC(=O)NC3CCCCC3)ccc2O[C@@H]1CN(C)S(C)(=O)=O`, the relative growth is inactive: 1.02.

On to `Cc1noc(C)c1NC(=O)N(C)C[C@H]1Oc2ccc(NS(=O)(=O)c3c(C)noc3C)cc2C(=O)N([C@H](C)CO)C[C@@H]1C`, for which the relative growth is inactive: 1.01.

In the case of `Cn1cnc(CCNC(=O)C[C@@H]2CC[C@@H]3[C@H](COC[C@H](O)CN3C(=O)Nc3ccc(C(F)(F)F)cc3)O2)c1`, the relative growth is inactive: 0.925.

As to `Cc1noc(C)c1NC(=O)Nc1ccc2c(c1)C(=O)N([C@@H](C)CO)C[C@@H](C)[C@@H](CN(C)S(=O)(=O)c1cccs1)OCCCC[C@H](C)O2`, the relative growth was inactive: 0.988.

On to `C[C@@H]1CCCCO[C@H](CN(C)C(=O)c2ccccc2)[C@H](C)CN([C@@H](C)CO)C(=O)c2cc(NC(=O)Nc3ccc4c(c3)OCO4)ccc2O1`, for which the relative growth was inactive: 1.

On to `C[C@@H]1CCCCO[C@H](CN(C)Cc2ccc(C(=O)O)cc2)[C@H](C)CN([C@H](C)CO)C(=O)c2cc(NC(=O)Nc3ccc4c(c3)OCO4)ccc2O1`, for which the relative growth is inactive: 1.05.

As to `Cc1noc(C)c1NC(=O)Nc1ccc2c(c1)C(=O)N([C@H](C)CO)C[C@H](C)[C@H](CN(C)S(=O)(=O)c1ccccc1)OCCCC[C@@H](C)O2`, the relative growth was inactive: 0.994.

Turning to `COc1ccc(CN(C)C[C@H]2OCCCC[C@@H](C)Oc3ccc(NS(=O)(=O)c4ccc(F)cc4)cc3C(=O)N([C@H](C)CO)C[C@@H]2C)cc1`, the relative growth is inactive: 1.02.

As for `CC(C)(Sc1cc(C(C)(C)C)c(O)c(C(C)(C)C)c1)Sc1cc(C(C)(C)C)c(OCC(=O)O)c(C(C)(C)C)c1`, the relative growth is inactive: 0.905.

In the case of `C[C@@H]1CCCCO[C@@H](CN(C)S(=O)(=O)c2ccccc2)[C@H](C)CN([C@@H](C)CO)C(=O)c2cc(NS(=O)(=O)c3ccc(Cl)cc3)ccc2O1`, the relative growth is inactive: 0.966.

For `C[C@@H]1CN([C@@H](C)CO)C(=O)c2cc(NC(=O)CCCN(C)C)ccc2O[C@@H](C)CCCCO[C@@H]1CN(C)S(=O)(=O)c1cn(C)cn1`, the relative growth was inactive: 0.988.

Turning to `CCCC(=O)Nc1ccc2c(c1)OC[C@@H](C)N(C(=O)Cc1ccccn1)C[C@@H](C)[C@H](OC)CN(C)C2=O`, the relative growth was inactive: 0.982.

For the compound `C[C@@H](NC(=O)C[C@H]1C=C[C@H](NC(=O)CN2CCOCC2)[C@H](CO)O1)c1ccccc1`, the relative growth is inactive: 1.01.

With `CNC[C@@H]1Oc2ccc(NC(=O)CCN3CCOCC3)cc2CC(=O)N([C@@H](C)CO)C[C@H]1C`, the relative growth was inactive: 0.899.

In the case of `COc1ccc([C@@H](NC(=O)C2CCN(CCOc3ccc(Cl)cc3Cl)CC2)c2ccco2)cc1`, the relative growth was inactive: 0.986.

Regarding `CO[C@H]1CN(C)C(=O)c2ccc(NC(=O)c3ccc(F)cc3)cc2OC[C@H](C)N(C(=O)CN(C)C)C[C@@H]1C`, the relative growth is inactive: 1.

For `COC(=O)OC[C@H]1O[C@@H](Oc2cc(C)cc(O)c2C(=O)CCc2ccc3occc3c2)[C@H](O)[C@@H](O)[C@@H]1O`, the relative growth is inactive: 0.988.

As for `COc1ccccc1NC(=O)N(C)C[C@H]1Oc2ncc(C#CC(C)C)cc2C(=O)N([C@H](C)CO)C[C@H]1C`, the relative growth was inactive: 1.

With `COc1ccc(NC(=O)Nc2ccc3c(c2)C(=O)N([C@H](C)CO)C[C@@H](C)[C@H](CN(C)S(=O)(=O)c2ccc(C)cc2)OCCCC[C@H](C)O3)cc1`, the relative growth is inactive: 1.05.
